The campaign covered roughly 310,000 compounds. About 14,000 (4.5%) showed an effect of 50% or more. The effect is printed as a negative number. The list shows a part of the results.
These compounds were tested against human ether-à-go-go-related gene (hERG) potassium channel (human, UniProt Q12809) (assay: primary screen, population patch clamp on CHO cells stably expressing hERG).
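Also: peak tail current of the secondary pulse compared with the same well before compound.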

Sequence of human ether-à-go-go-related gene (hERG) potassium channel (Q12809 whole entry, looked up): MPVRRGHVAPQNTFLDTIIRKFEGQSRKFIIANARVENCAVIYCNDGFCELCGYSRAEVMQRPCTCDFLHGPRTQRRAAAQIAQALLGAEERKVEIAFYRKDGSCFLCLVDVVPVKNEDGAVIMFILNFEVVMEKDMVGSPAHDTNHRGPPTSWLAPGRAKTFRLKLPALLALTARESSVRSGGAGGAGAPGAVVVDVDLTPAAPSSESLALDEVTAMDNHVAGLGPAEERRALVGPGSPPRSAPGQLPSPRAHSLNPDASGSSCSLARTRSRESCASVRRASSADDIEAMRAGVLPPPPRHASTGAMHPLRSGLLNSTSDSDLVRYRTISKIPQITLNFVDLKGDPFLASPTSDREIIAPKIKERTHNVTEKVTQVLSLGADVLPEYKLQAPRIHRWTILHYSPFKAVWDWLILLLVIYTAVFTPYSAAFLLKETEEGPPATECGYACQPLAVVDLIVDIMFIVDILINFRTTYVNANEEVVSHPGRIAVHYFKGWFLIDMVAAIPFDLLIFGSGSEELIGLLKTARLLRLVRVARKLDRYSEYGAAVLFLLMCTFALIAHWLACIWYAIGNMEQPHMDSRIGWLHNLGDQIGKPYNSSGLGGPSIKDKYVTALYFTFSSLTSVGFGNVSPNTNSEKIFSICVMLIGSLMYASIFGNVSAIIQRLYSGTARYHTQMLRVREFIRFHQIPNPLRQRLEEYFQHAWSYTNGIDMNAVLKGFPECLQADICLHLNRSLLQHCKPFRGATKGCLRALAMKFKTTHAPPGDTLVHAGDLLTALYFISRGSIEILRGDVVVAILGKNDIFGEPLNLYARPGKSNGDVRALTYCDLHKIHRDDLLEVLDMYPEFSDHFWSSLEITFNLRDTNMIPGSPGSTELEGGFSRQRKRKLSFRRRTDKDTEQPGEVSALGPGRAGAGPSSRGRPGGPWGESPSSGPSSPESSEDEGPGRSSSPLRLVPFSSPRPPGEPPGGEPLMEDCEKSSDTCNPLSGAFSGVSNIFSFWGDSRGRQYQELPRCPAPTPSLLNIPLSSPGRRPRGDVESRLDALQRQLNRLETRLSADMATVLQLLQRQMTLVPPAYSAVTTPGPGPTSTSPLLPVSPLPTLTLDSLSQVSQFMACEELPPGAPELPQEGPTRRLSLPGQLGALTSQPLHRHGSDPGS

| Structure (SMILES) | hERG current change (%, negative = inhibition) at 10uM [%] |
| --- | --- |
| Cc1onc(-c2ccccc2)c1C(=O)Oc1cccnc1 | -18.7 |
| O=c1oc2ccccc2c(O)c1Cc1cc(Cl)c2cccnc2c1O | 2.42 |
| O=C(NCc1ccccc1)C1C2C=CC3(CN(Cc4cccnc4)C(=O)C13)O2 (centres unmarked) | 10 |
| O=Cc1ccc2noc(-c3ccc(Cl)cc3)c2c1 | -1.22 |
| O=C(Nc1ccccc1F)Nc1ccccc1N1CCCCC1 | -7.83 |
| Cc1cc(C(=O)NNC(=O)c2ccc(C(F)(F)F)cc2)no1 | 14.1 |
| COc1ccccc1N1CCN(C(=O)Cc2cccs2)CC1 | -8.91 |
| Cc1ccccc1-c1cccc([C@@H]2C[C@H]3CN(Cc4cccnc4)C(=O)[C@]34CCCN24)c1 | -59 |
| CC(O)(CS(=O)(=O)Cc1ccccc1)c1ccc(Cl)cc1 (centres unmarked) | 4.72 |
| COCCn1c(-c2ccc(OC)cc2)nc2oc3cc(OC)ccc3c(=O)c2c1=O | -12.6 |
| Cc1noc(C)c1COc1ccc(CC(=O)NC2CCCCCC2)cc1 | 39.5 |
| COc1ccc(OC)c(NC(=O)CN(c2ccc(C)cc2)S(=O)(=O)c2c(C)noc2C)c1 | 3.24 |
| O=C(NCCc1cn[nH]c1)C1CCC(=O)N(CCc2cccc(F)c2)C1 (centres unmarked) | 25.1 |
| O=C(CSc1ccc(Cl)cc1)N1N=CCC1c1ccccc1 (centres unmarked) | -6.77 |
| CS(=O)(=O)C1=NSC2=NC(=O)/C(=C\c3cccn3-c3ccccc3Cl)C(=N)N21 | 12.8 |
| O=C(O)c1ccc(NC(=O)c2ccc(Cl)cc2)c(NC(=O)c2ccc(Cl)cc2)c1 | 13.5 |
| Cc1cc(=O)oc2cc(OCC(=O)NC3CCN(Cc4ccccc4)CC3)ccc12 | -63.9 |
| O=C1CN(O)C(c2ccccc2)=c2cc(Br)ccc2=N1 | 1.78 |
| CCOC(=O)c1c(O)c2c([nH]c1=O)CCCC2 | 5.06 |
| COc1cccc(CNc2nc3ccccc3n2CCN2CCCCC2)c1OC | -63.6 |
| CN(CCOc1ccc(Br)cc1)CC(=O)Nc1cccc(S(=O)(=O)NC2=NCCC2)c1 | -11.4 |
| CC(=O)NCCc1c[nH]c2ccc(OCC(O)CNC(C)(C)C)cc12.O=C(O)c1ccccc1 (centres unmarked) | 17.5 |

| Structure (SMILES) | hERG current change (%, negative = inhibition) at 10uM [%] |
| --- | --- |
| COc1ccc2c(c1)CCC/C2=N\Nc1nc(C(=O)NN)cs1 | 9.76 |
| COc1cc(OC)cc(C(=O)Nc2nc3ccc(S(C)(=O)=O)cc3s2)c1 | 21.3 |
| CSc1ccc(N=Nc2c(C)[nH]n(C)c2=O)cc1 | -6.31 |
| CCc1ccc(CC2S/C(=C(\C#N)C(C)=O)NC2=O)cc1 (centres unmarked) | 12.4 |
| C=CCn1c(CSc2nc3ccccc3s2)nnc1SCC(=O)NCc1ccco1 | -17.6 |
| CCN(CC)c1ccc(NC(=O)c2ccc3c(c2)c(C)c(C)n3C)cc1 | -5.69 |
| O=C(Nc1ccc(Nc2ccncc2)cc1)c1ccc([N+](=O)[O-])cc1 | -59.5 |
| COc1ccc(NC(=O)COc2ccc3oc(=O)cc(C)c3c2)cc1 | 0.254 |
| Cn1c(N)c(C(=O)COC(=O)COc2ccc(Cl)cc2)c(=O)n(C)c1=O | -23.1 |
| CC(C)C(C)NC(=O)COc1nc2ccccc2nc1N(C)C1CCCCC1 (centres unmarked) | 24.3 |
| CCN(CC)CCCN(Cc1cc2cc3c(cc2[nH]c1=O)OCO3)C(=S)NCCCOC | -5.13 |
| CCOC(=O)c1ccc(S(=O)(=O)N2CCN(CC(=O)NC(=O)NC(C)(C)C)CC2)cc1 | -15.4 |
| O=C(NNS(=O)(=O)c1ccccc1C(F)(F)F)c1cc2ncc(C(F)(F)F)cc2s1 | 12.2 |
| CCOc1ccc(C(=O)NCC2CCCN2S(=O)(=O)c2cccs2)cc1 (centres unmarked) | -20.1 |
| COc1ccc(N=C2C(=Nc3ccc(OC)cc3)N(c3ccc(OC)cc3)C(=S)N2c2ccccc2)cc1 | 11.2 |
| CCCNC(=O)CN(c1cccc(F)c1)S(C)(=O)=O | 1.87 |
| CC1CCCN(CCCNC(=O)CN2C(=O)COc3ccc(S(=O)(=O)N4CCOCC4)cc32)C1 (centres unmarked) | 21.1 |
| COc1ccc(S(=O)(=O)Cc2ccc(C(=O)NC3CCCC3)o2)cc1 | -3.4 |
| CCOc1ccc(NC2OC(C)C(O)C(O)C2O)c([N+](=O)[O-])c1 (centres unmarked) | 14.9 |
| COC(=O)c1ccc2c(c1)N(Cc1ccccc1F)C(=O)c1ccccc1S2=O (centres unmarked) | -4.83 |
| O=C(Cc1csc(N2CCOCC2)n1)N/N=C/c1ccc(Cl)cc1Cl | -15 |
| COc1ccc([C@H]2C=C(C(=O)O)O[C@@H](OCc3ccc(CO)cc3)C2)cc1 | 15.4 |

| Structure (SMILES) | hERG current change (%, negative = inhibition) at 10uM [%] |
| --- | --- |
| CCN1CCc2nc(NC(=O)CC(c3ccccc3)c3ccccc3)sc2C1 | -4.86 |
| Cc1cc2oc(C(=O)N3CCN(Cc4ccccc4)CC3)c(C)c2cc1C | 1.76 |
| CC(C)Oc1ccc(CNCC2(O)CCOC(C)(C)C2)cc1 (centres unmarked) | -5.26 |
| CCOc1ccc(N2CC(C(=O)Nc3ccc(F)cc3F)CC2=O)cc1 (centres unmarked) | -3.45 |
| COc1ccc(OC)c(C2CC(=O)c3c([nH]c(C(=O)OC(C)C)c3C)C2)c1 (centres unmarked) | 7.28 |
| Cc1ccc(-c2nnn(CC(=O)N(Cc3ccco3)C(C(=O)NC3CCCC3)c3cccs3)n2)o1 (centres unmarked) | 5.76 |
| CN1OC(CC(=O)O)N(c2ccc(Cl)cc2)C1=O (centres unmarked) | 27.4 |
| O=C(COc1cccc(NC(=O)c2cccs2)c1)c1ccc(F)cc1 | -33.8 |
| O=c1cc(CN2CCN(c3ccc(F)cc3)CC2)c2cc3c(cc2o1)CCCC3 | 12.4 |
| N#CCCN(Cc1cccnc1)C(=S)Nc1ccc(OC(F)F)cc1 | -78.2 |
| Cc1cccc(-n2c(SCC(N)=O)nnc2-c2ccco2)c1 | -1.07 |
| Cc1ccccc1N=CC1=C(O)c2ccccc2C1=O | 2.26 |
| Cc1cccc(C)c1OCC(=O)Nc1ccc(NC(=O)c2ccco2)cc1 | 2.17 |
| CCc1ccc(CN(C)Cc2nc(Cc3cccc(C(F)(F)F)c3)no2)nc1 | -28.1 |
| O=C(CSc1nnc(-c2ccncc2)n1CCc1ccccc1)N1CCCC1 | 12.9 |
| CN(C)S(=O)(=O)N(CC(=O)Nc1ccc(S(=O)(=O)N2CCCC2)cc1)c1ccccc1 | -24.6 |
| O=C(c1cc2cc(Cl)ccc2[nH]1)N1CCc2ccccc2C1 | 18.5 |
| O=C(CSc1ncnc2c1cnn2-c1ccccc1)NCC1CCCO1 (centres unmarked) | -22.9 |
| N#CCc1nc2n(n1)Cc1ccccc1-2 | -22.4 |
| COC(=O)c1cc(-c2ccc(OC)cc2)nc2nc(SC)[nH]c(=O)c12 | 25.7 |
| O=C(Nc1cccc(Br)c1)c1ccc(CN2CCc3ccccc3C2)cc1 | -1.55 |
| COc1ccccc1-c1nnc(SCC(=O)Nc2ccccc2)o1 | -13.5 |

| Structure (SMILES) | hERG current change (%, negative = inhibition) at 10uM [%] |
| --- | --- |
| c1ccc(-c2nnc(C3CC(c4cccnc4)=NO3)o2)cc1 (centres unmarked) | 6.5 |
| CCCCCCCCc1nc(SC(C)C(=O)O)n[nH]1 (centres unmarked) | 5.98 |
| O=C(CCNC(=O)c1ccccc1Cl)NCc1ccncc1 | 2.48 |
| CCCCOC(=O)c1ccc(NC(=O)C(=O)NCc2ccccn2)cc1 | 12.2 |
| COc1cc(/C=C/C(=O)N2CCCC2)cc(OC)c1OC | 1.51 |
| CC[C@@H](C)C(NC(=O)OC(C)(C)C)c1cn([C@@H](Cc2cc3ccccc3[nH]2)C(=O)N2CCN(C(=O)OC(C)(C)C)CC2)nn1 (some centres unmarked) | -13.4 |
| COC(=O)C1=C(CS(=O)(=O)c2ccccc2)NC(=O)NC1c1ccccc1 (centres unmarked) | 7.33 |
| COP(=O)(OC)C(NC(=O)/C=C/c1ccccc1)C(Cl)(Cl)Cl (centres unmarked) | 18 |
| O=C(NCC1CCCO1)c1ccccc1-c1nc(-c2ccccc2)no1 (centres unmarked) | -18.4 |
| Cc1cccc(/C(N)=N/OC(=O)C23CC4CC(CC(C4)C2)C3)c1 | -1.25 |
| O=C(CSc1nc(=O)n(CCN2CCOCC2)c2c1CCC2)Nc1ccc(OC(F)(F)F)cc1 | -71.8 |
| CCOc1ccc(S(=O)(=O)Nc2cccc(C(=O)N3CC(C)OC(C)C3)c2)cc1 (centres unmarked) | -3.45 |
| CCOc1ccc(CNC(=S)N/N=C\c2ccc([N+](=O)[O-])cc2)cc1 | -0.189 |
| Cc1cccc2c1N(CCOc1ccc(C(C)(C)C)cc1)C(=O)C2=O | -7.48 |
| O=C(CNC(=O)c1ccccc1)NCc1nc2ccccc2[nH]1 | 3.76 |
| COc1ccc(C2c3[nH]c4ccccc4c3CCN2CCCn2cccn2)c(C)c1C (centres unmarked) | -9.49 |
| O=C(c1ccc(Cn2cc(Cl)cn2)cc1)N1CCN(c2ccccc2)CC1 | -58.4 |
| Cc1cccc(N2CCN(S(=O)(=O)c3ccc4c(c3)OCCO4)CC2)c1C | -2.83 |
| CCOC(=O)c1sc(NC(=O)c2cccc(S(=O)(=O)N3CCN(C)CC3)c2)cc1C | -21.4 |
| Cc1c(C(=O)N2CCCCC2)c(S(=O)(=O)Nc2cccc(Br)c2)c(C)n1C | -4.02 |

— publication PMC4336329 (PLoS ONE, 2015)
